Assay in all cases: enrichment score (SH2-bound / input frequency) (ratio); bacterial display of known human phosphotyrosine sites (pTyr-Var adds point mutants) read by sequencing; higher = stronger binding; tyrosines were phosphorylated by kinases first
What all share (conditions): peptide library: pTyr-Var

Experiment [1] has as its target SHP2 C-SH2 domain E139D.
The target in experiment [2] is SHP2 C-SH2 domain wild-type.
For experiment [3], the target named is SHP2 N-SH2 domain L43F.
For experiment [4], the target named is SHP2 N-SH2 domain T42A.
In experiment [5] the target is SHP2 N-SH2 domain T52S.
For experiment [6], the target named is SHP2 N-SH2 domain wild-type.

The list shows a part of the results. Rule as the data show it: active = 3.2 or more and inactive = the rest. Only a few entries rise above the background.
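Also: displayed peptides selected on beads carrying the immobilized SH2 domain, with library peptides lacking any tyrosine serving as negative controls.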

Consider GFRVCYTPDSR [PTPRF_Y451_Y450C_YF], for which the enrichment score was inactive: 0.673 in experiment [1]; inactive: 0.82 in experiment [2]; inactive: 0.75 in experiment [3]; inactive: 0.557 in experiment [4]; inactive: 0.558 in experiment [5]; inactive: 0.937 in experiment [6].
AELVPYYMEHH [PTPN11_Y80_Q79P]: the enrichment score is inactive: 1.6 in experiment [1]; inactive: 1.44 in experiment [2]; inactive: 1.37 in experiment [3]; inactive: 1 in experiment [4]; inactive: 1.19 in experiment [5]; inactive: 1.07 in experiment [6].
As for VKRNRYKDILP [PTPN12_Y64_K61R], the enrichment score in experiment [1] is inactive: 0.345; in experiment [2], inactive: 0.336; in experiment [3], inactive: 0.363; in experiment [4], inactive: 0.296; in experiment [5] it was inactive: 0.242; in experiment [6], inactive: 0.25.
As for CLMILHRLKER [PTPRR_Y249_Y249H], the enrichment score in experiment [1] was inactive: 1.33; in experiment [2] it was inactive: 1.12; in experiment [3], inactive: 1.12; in experiment [4], inactive: 0.948; in experiment [5], inactive: 1.32; in experiment [6] it was inactive: 0.938.
Turning to RPQDGYRIVQH [PTPRT_Y1329], the enrichment score is inactive: 0.843 in experiment [1]; inactive: 0.635 in experiment [2]; inactive: 0.655 in experiment [3]; inactive: 0.509 in experiment [4]; inactive: 0.573 in experiment [5]; inactive: 0.741 in experiment [6].
In the case of GFRVFYTPDSR [PTPRF_Y451_YF], the enrichment score in experiment [1] is inactive: 1.38; in experiment [2], inactive: 0.983; in experiment [3], inactive: 0.918; in experiment [4], inactive: 0.982; in experiment [5], inactive: 1.41; in experiment [6] it was inactive: 1.16.
Take RGYRVYYTPDS [PTPRF_Y450]: the enrichment score in experiment [1] was inactive: 1.19; in experiment [2], inactive: 1.19; in experiment [3] it was inactive: 1.08; in experiment [4] it was inactive: 0.884; in experiment [5], inactive: 1; in experiment [6] it was inactive: 0.687.
Take GSERRYTREGG [PTPRN2_Y139_S140T]: the enrichment score in experiment [1] was inactive: 0.452; in experiment [2], inactive: 0.412; in experiment [3], inactive: 0.306; in experiment [4], inactive: 0.353; in experiment [5], inactive: 0.435; in experiment [6], inactive: 0.401.
For RGFRVCFTPDS [PTPRF_Y450_Y450C_YF], the enrichment score in experiment [1] was inactive: 0.644; in experiment [2] it was inactive: 0.77; in experiment [3] it was inactive: 0.643; in experiment [4], inactive: 0.866; in experiment [5], inactive: 0.716; in experiment [6] it was inactive: 1.02.
Regarding WEPFGYAVTRC [PTPRT_Y412], the enrichment score in experiment [1] was inactive: 0.591; in experiment [2] it was inactive: 0.737; in experiment [3] it was inactive: 0.671; in experiment [4] it was inactive: 0.536; in experiment [5] it was inactive: 0.603; in experiment [6], inactive: 0.679.
For AELVPYFMEHH [PTPN11_Y80_Q79P_YF], the enrichment score is inactive: 1.23 in experiment [1]; inactive: 1.25 in experiment [2]; inactive: 1.2 in experiment [3]; inactive: 1.11 in experiment [4]; inactive: 1.09 in experiment [5]; inactive: 1.24 in experiment [6].
As to HKGASYAFRLS [PTPRD_Y891_V892A], the enrichment score is inactive: 0.879 in experiment [1]; inactive: 0.906 in experiment [2]; inactive: 0.804 in experiment [3]; inactive: 0.745 in experiment [4]; inactive: 0.898 in experiment [5]; inactive: 1 in experiment [6].
With AVLVQYFMEHH [PTPN11_Y80_E76V_YF], the enrichment score in experiment [1] is active: 4.58; in experiment [2], active: 4.06; in experiment [3], active: 4.04; in experiment [4], active: 3.44; in experiment [5], active: 3.88; in experiment [6], active: 3.76.
With AELVRYFMEHH [PTPN11_Y80_Q79R_YF], the enrichment score is inactive: 1.46 in experiment [1]; inactive: 1.19 in experiment [2]; inactive: 1.29 in experiment [3]; inactive: 1.34 in experiment [4]; inactive: 1.49 in experiment [5]; inactive: 1.53 in experiment [6].
On to LPQDGYRIVQH [PTPRT_Y1329_R1324L], for which the enrichment score is inactive: 0.655 in experiment [1]; inactive: 0.82 in experiment [2]; inactive: 0.721 in experiment [3]; inactive: 0.663 in experiment [4]; inactive: 0.764 in experiment [5]; inactive: 0.849 in experiment [6].

The values above are taken from the supplement of paper PMC10369915.
